According to PMC5797217, “UFD-2 is an adaptor-assisted E3 ligase targeting unfolded proteins” (Nature Communications, 2018):
No constants are given. Whether binding was seen depends on the method and setting. Some binding calls cover weakened binding; strength is not graded here. Tags and fused reporters may be left off the sequences shown. Values belong to the binder of their own block, whether it stands above or below them.

Assays:
[1] = molecular target: T1, C-terminally Strep-tagged UFD-2 (C. elegans) (UniProt Q09349); experiment: pull-down; Strep-UFD-2 held on Strep-Tactin Superflow beads; His6-tagged UNC-45 proteins pre-incubated 60 min 27 °C, then with UFD-2 60 min 30 °C; 5 µM protein; 20 mM Tris pH 7.5, 50 mM NaCl; elution with desthiobiotin, Coomassie; both purified
T1 sequence: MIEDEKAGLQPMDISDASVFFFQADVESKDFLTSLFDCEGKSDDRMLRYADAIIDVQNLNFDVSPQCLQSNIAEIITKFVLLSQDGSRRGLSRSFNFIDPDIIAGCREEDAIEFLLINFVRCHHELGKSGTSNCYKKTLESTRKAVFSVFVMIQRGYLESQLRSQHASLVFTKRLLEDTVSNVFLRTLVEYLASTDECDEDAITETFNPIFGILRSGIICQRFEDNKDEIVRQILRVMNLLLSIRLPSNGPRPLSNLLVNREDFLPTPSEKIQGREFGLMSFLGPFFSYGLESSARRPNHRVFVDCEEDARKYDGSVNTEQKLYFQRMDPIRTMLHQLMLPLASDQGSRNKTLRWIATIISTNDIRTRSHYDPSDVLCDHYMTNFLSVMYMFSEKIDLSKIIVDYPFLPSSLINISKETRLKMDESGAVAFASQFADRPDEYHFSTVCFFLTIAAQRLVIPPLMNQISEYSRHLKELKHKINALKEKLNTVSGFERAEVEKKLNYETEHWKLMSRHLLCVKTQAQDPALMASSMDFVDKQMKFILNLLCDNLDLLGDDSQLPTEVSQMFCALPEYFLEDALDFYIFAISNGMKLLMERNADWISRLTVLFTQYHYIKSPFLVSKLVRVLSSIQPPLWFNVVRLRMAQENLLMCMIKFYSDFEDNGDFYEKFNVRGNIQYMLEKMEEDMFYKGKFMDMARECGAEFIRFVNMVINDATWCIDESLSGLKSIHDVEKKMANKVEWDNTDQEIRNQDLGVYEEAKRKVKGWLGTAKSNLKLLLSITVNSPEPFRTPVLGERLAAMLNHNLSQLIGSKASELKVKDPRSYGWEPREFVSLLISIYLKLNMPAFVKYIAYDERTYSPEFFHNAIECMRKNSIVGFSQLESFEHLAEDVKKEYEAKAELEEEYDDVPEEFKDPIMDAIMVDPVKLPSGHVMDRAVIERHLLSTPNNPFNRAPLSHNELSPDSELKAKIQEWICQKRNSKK

[2] = molecular target: T1, C-terminally Strep-tagged UFD-2 (C. elegans); experiment: pull-down; three proteins: His6-tagged UNC-45 pre-incubated with myosin (MHC-B motor domain) 60 min 27 °C, then with Strep-UFD-2 60 min 30 °C; Strep-Tactin beads; 5 µM protein; 20 mM Tris pH 7.5, 50 mM NaCl; Coomassie; both purified

binding [1]: binds
B1: UNC-45_(ΔUCS) (1-521), His6-tagged (domain or fragment, UniProt G5EG62 1-521)
chain: MVARVQTAEEIRDEGNAAVKDQDYIKADELYTEALQLTTDEDKALRPVLYRNRAMARLKRDDFEGAQSDCTKALEFDGADVKALFRRSLAREQLGNVGPAFQDAKEALRLSPNDKGIVEVLQRLVKANNDKIKQTTSLANKVTDMEKLAFRGEAKDTEQKMTALNNLLVLCRESESGATGVWNQGALVPFVLNLINDASENEEVTVTAIRILDETIKNSVRCMKFLAMHDPDGPKSVRFVCRLMCKKSTKDFVDATGILVQRVFNAMAKMDRQKEMKPDPEVAEANKIWIIRVLLELQEMLQDPKVGAVQRETCIDLFLKNLMHMDGGIPRGWSWKFVEERGLLALLDVASQIPELCEYPVSAETRQHVAICLQRLEEDMVFDTKRTIFKEKVDMFFNALISRCTNDDEGHKYRIKLSCFLITMLQGPVDIGINLITNDQLTPIMLEMAASQDHLMQGIAAELIVATVSKHERAINMLKVGIPVLRALYDSEDPTVKVRALVGLCKIGAAGGDDISKATMK

binding [1]: no binding (tested: 5 µM)
B2: UNC-45_(ΔTPR) (135-961), His6-tagged (domain or fragment, UniProt G5EG62 135-961)
chain: TTSLANKVTDMEKLAFRGEAKDTEQKMTALNNLLVLCRESESGATGVWNQGALVPFVLNLINDASENEEVTVTAIRILDETIKNSVRCMKFLAMHDPDGPKSVRFVCRLMCKKSTKDFVDATGILVQRVFNAMAKMDRQKEMKPDPEVAEANKIWIIRVLLELQEMLQDPKVGAVQRETCIDLFLKNLMHMDGGIPRGWSWKFVEERGLLALLDVASQIPELCEYPVSAETRQHVAICLQRLEEDMVFDTKRTIFKEKVDMFFNALISRCTNDDEGHKYRIKLSCFLITMLQGPVDIGINLITNDQLTPIMLEMAASQDHLMQGIAAELIVATVSKHERAINMLKVGIPVLRALYDSEDPTVKVRALVGLCKIGAAGGDDISKATMKEEAVISLAKTCKKFLLETEKYSVDIRRYACEGLSYLSLDADVKEWIVDDSLLLKALVLLAKKAGALCVYTLATIYANLSNAFEKPKVDEEMVKLAQFAKHHVPETHPKDTEEYVEKRVRALVEEGAVPACVAVSKTESKNALELIARSLLAFAEYEDLRGRIIAEGGTVLCLRLTKEASGEGKIKAGHAIAKLGAKADPMISFPGQRAYEVVKPLCDLLHPDVEGKANYDSLLTLTNLASVSDSIRGRILKEKAIPKIEEFWFMTDHEHLRAAAAELLLNLLFFEKFYEETVAPGTDRLKLWVLYSAEVEEERLSRASAAGFAILTEDENACARIMDEIKSWPEVFKDIAMHEDAETQRRGLMGIANIMHSSNKLCSEIVSSEVFRVLVAVTKLGTINQERAGSTEQAKRGLEAAEKFGLIKATDREIYERENQMSTIQE

binding [1]: binds
B3: UNC-45_(E781K) ts-mutant, His6-tagged (protein, UniProt G5EG62 1-961)
chain: MVARVQTAEEIRDEGNAAVKDQDYIKADELYTEALQLTTDEDKALRPVLYRNRAMARLKRDDFEGAQSDCTKALEFDGADVKALFRRSLAREQLGNVGPAFQDAKEALRLSPNDKGIVEVLQRLVKANNDKIKQTTSLANKVTDMEKLAFRGEAKDTEQKMTALNNLLVLCRESESGATGVWNQGALVPFVLNLINDASENEEVTVTAIRILDETIKNSVRCMKFLAMHDPDGPKSVRFVCRLMCKKSTKDFVDATGILVQRVFNAMAKMDRQKEMKPDPEVAEANKIWIIRVLLELQEMLQDPKVGAVQRETCIDLFLKNLMHMDGGIPRGWSWKFVEERGLLALLDVASQIPELCEYPVSAETRQHVAICLQRLEEDMVFDTKRTIFKEKVDMFFNALISRCTNDDEGHKYRIKLSCFLITMLQGPVDIGINLITNDQLTPIMLEMAASQDHLMQGIAAELIVATVSKHERAINMLKVGIPVLRALYDSEDPTVKVRALVGLCKIGAAGGDDISKATMKEEAVISLAKTCKKFLLETEKYSVDIRRYACEGLSYLSLDADVKEWIVDDSLLLKALVLLAKKAGALCVYTLATIYANLSNAFEKPKVDEEMVKLAQFAKHHVPETHPKDTEEYVEKRVRALVEEGAVPACVAVSKTESKNALELIARSLLAFAEYEDLRGRIIAEGGTVLCLRLTKEASGEGKIKAGHAIAKLGAKADPMISFPGQRAYEVVKPLCDLLHPDVEGKANYDSLLTLTNLASVSDSIRGRILKEKAIPKIEKFWFMTDHEHLRAAAAELLLNLLFFEKFYEETVAPGTDRLKLWVLYSAEVEEERLSRASAAGFAILTEDENACARIMDEIKSWPEVFKDIAMHEDAETQRRGLMGIANIMHSSNKLCSEIVSSEVFRVLVAVTKLGTINQERAGSTEQAKRGLEAAEKFGLIKATDREIYERENQMSTIQE

binding [2]: binds
B4: C. elegans MHC-B motor domain (1-790), His6-tagged (domain or fragment, UniProt P02566 1-790, looked up)
chain: MEHEKDPGWQYLRRTREQVLEDQSKPYDSKKNVWIPDPEEGYLAGEITATKGDQVTIVTARGNEVTLKKELVQEMNPPKFEKTEDMSNLSFLNDASVLHNLRSRYAAMLIYTYSGLFCVVINPYKRLPIYTDSCARMFMGKRKTEMPPHLFAVSDEAYRNMLQDHENQSMLITGESGAGKTENTKKVICYFAAVGASQQEGGAEVDPNKKKVTLEDQIVQTNPVLEAFGNAKTVRNNNSSRFGKFIRIHFNKHGRLASCDIEHYLLEKSRVIRQAPGERCYHIFYQIYSDFRPELKKELLLDLPIKDYWFVAQAELIIDGIDDVEEFQLTDEAFDILNFSAVEKQDCYRLMSAHMHMGNMKFKQRPREEQAEPDGTDEAEKASNMYGIGCEEFLKALTKPRVKVGTEWVSKGQNCEQVNWAVGAMAKGLYSRVFNWLVKKCNLTLDQKGIDRDYFIGVLDIAGFEIFDFNSFEQLWINFVNEKLQQFFNHHMFVLEQEEYAREGIQWVFIDFGLDLQACIELIEKPLGIISMLDEECIVPKATDLTLASKLVDQHLGKHPNFEKPKPPKGKQGEAHFAMRHYAGTVRYNCLNWLEKNKDPLNDTVVSAMKQSKGNDLLVEIWQDYTTQEEAAAKAKEGGGGGKKKGKSGSFMTVSMLYRESLNNLMTMLNKTHPHFIRCIIPNEKKQSGMIDAALVLNQLTCNGVLEGIRICRKGFPNRTLHPDFVQRYAILAAKEAKSDDDKKKCAEAIMSKLVNDGSLSEEMFRIGLTKVFFKAGVLAHLEDIRDEKL
notes: Myosin heavy chain B (MHC-B, UNC-54), C. elegans muscle myosin, motor domain residues 1-790, cloned from cDNA into pACEBac1; also called myosin; MHC-B head domain; source: High Five insect cells, purified (NiNTA, Streptactin wash fractions, SEC) or co-purified with UNC-45; not shown: His6, C-terminal, kept

binding [1]: no binding (tested: 5 µM)
B5: UNC-45_(GST-UCS) (525-961), His6-tagged (domain or fragment, UniProt G5EG62 525-961)
chain: VISLAKTCKKFLLETEKYSVDIRRYACEGLSYLSLDADVKEWIVDDSLLLKALVLLAKKAGALCVYTLATIYANLSNAFEKPKVDEEMVKLAQFAKHHVPETHPKDTEEYVEKRVRALVEEGAVPACVAVSKTESKNALELIARSLLAFAEYEDLRGRIIAEGGTVLCLRLTKEASGEGKIKAGHAIAKLGAKADPMISFPGQRAYEVVKPLCDLLHPDVEGKANYDSLLTLTNLASVSDSIRGRILKEKAIPKIEEFWFMTDHEHLRAAAAELLLNLLFFEKFYEETVAPGTDRLKLWVLYSAEVEEERLSRASAAGFAILTEDENACARIMDEIKSWPEVFKDIAMHEDAETQRRGLMGIANIMHSSNKLCSEIVSSEVFRVLVAVTKLGTINQERAGSTEQAKRGLEAAEKFGLIKATDREIYERENQMSTIQE
